# The campaign covered roughly 420,000 compounds. About 64,000 (15%) were called active. The shares of active, inactive and inconclusive entries below differ from those in the screen. Calls come from the whole dose curve; as a rule, active = well fitted inhibition curve with a large enough effect; inconclusive = small, poorly fitted or top-dose-only effect; inactive = flat fitted curve, though single readings scatter. Potencies of inconclusive entries are left out as doubtful fits.
# Assay: qHTS for Inhibitors of human tyrosyl-DNA phosphodiesterase 1 (TDP1): qHTS in cells in absence of CPT; note: nearly all actives have a fitted effect of over 55% in size
# Settings: DT40 Tdp1-/- hTDP1 cells, no CPT, ATP luminescence, 48 h; activity change, negative = growth inhibition: at 46.2 µM (top of the series) unless noted
# Procedure, shortened: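 A cellular qHTS used chicken DT40 cells lacking endogenous Tdp1 but carrying stably transfected human TDP1. Compounds were applied without camptothecin, and cell growth kinetics were judged by ATP-dependent luminescence after ≥48 hr.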
# % is set by controls: 0 for no effect and ±100 for the full control effect; potency is the fitted concentration of half-maximal effect; tags give direction and shape of the fitted curve.
SMILES,Potency,"activity change, negative = growth inhibition"
CN(C)CCCN(C(=O)c1ccco1)c1nc2cc3c(cc2s1)OCO3,active: 5.17 µM,
Cc1sc2ncnc(N3CCC(C(=O)Nc4ccc(C#N)cc4)CC3)c2c1C,"inconclusive [inhibitor, partial curve]",
O=C(COc1ccccc1)NCc1ccc2c(c1)OCO2,inactive,
Cc1cnc(NC(=O)C2CC(=O)N(c3ccc4c(c3)OCCO4)C2)s1 (stereo not given),inactive,
CCN(CC)C(=O)CSc1nc2cc3c(cc2c(=O)n1CCCCCC(=O)NCc1ccc(OC)cc1)OCO3,"inconclusive [inhibitor, single point]",
CC(=O)c1ccc(N2CCN(c3ccc(S(=O)(=O)N4CCN(C)CC4)cn3)CC2)cc1,inactive,
C[C@H](CO)N1C[C@H](C)[C@H](CN(C)S(=O)(=O)c2ccc(-n3cccn3)cc2)OCc2cnnn2CCCC1=O,"inconclusive [inhibitor, full curve]",
CCN(CCCNC(=O)c1ccc(Sc2ccc(F)cc2)c(NC(C)=O)c1)c1ccccc1,"inconclusive [inhibitor, single point]",
Cc1nnsc1-c1nnc(SCC(=O)c2ccc(C#N)cc2)n1C1CC1,,inconclusive: -25.4% [inhibitor]
O=C(NCC(c1ccc2c(c1)OCO2)N1CCN(c2ccccc2)CC1)C(=O)Nc1cccc(F)c1 (stereo not given),"inconclusive [inhibitor, partial curve]",
CCC(CO)Oc1cc(NC(=O)c2ccc(Cl)cc2)c2ncn(C(C)C)c2c1 (stereo not given),inactive,
Cc1ccc(CSC2=Nc3ccccc3C3=NC(CCC(=O)NCc4cccs4)C(=O)N23)cc1 (stereo not given),"inconclusive [inhibitor, single point]",
CCOc1ccc(CNc2ccc(N3CCN(Cc4ccccc4)CC3)cc2)cc1,"inconclusive [inhibitor, single point]",
Cc1ccc(F)cc1NC(=O)Cn1c(=O)nc(-c2ccccc2F)c2cc(Cl)ccc21,"inconclusive [inhibitor, partial curve]",
COc1ccc(NC(=O)CSc2nc3cccnc3n2C)cc1,inactive,
O=c1oc2ccccc2cc1-c1cn2cccnc2n1,"inconclusive [inhibitor, single point]",
O=C(CN1CCN(S(=O)(=O)c2ccccc2)CC1)Nc1cccc(C(F)(F)F)c1,"inconclusive [inhibitor, single point]",
Cc1nc(N2CCOCC2)nc(N2CCN(c3ccccc3)CC2)c1[N+](=O)[O-],"inconclusive [inhibitor, single point]",
CC(Oc1cccc(Cl)c1)C(=O)Nc1ccccc1N1CCCC1 (stereo not given),"inconclusive [inhibitor, single point]",
CC1(C(=O)NCc2ccc(Cl)c(Cl)c2)Oc2ccccc2NC1=O (stereo not given),"inconclusive [inhibitor, single point]",
Cc1ccc(-c2nc3c(C)cccn3c2Nc2ccccc2C)s1,"inconclusive [inhibitor, single point]",
Clc1ccc(-c2cn3c(n2)SCC3)cc1,"inconclusive [inhibitor, single point]",
Cc1ccc2nc(-c3ccccc3N)[nH]c2c1,"inconclusive [inhibitor, single point]",
O=c1oc2c(-c3cccc(F)c3)cc(O)cc2s1,"inconclusive [inhibitor, single point]",

SMILES,Potency,"activity change, negative = growth inhibition"
CC(C)(C)C1c2[nH]c3ccccc3c2CCN1Cc1cccc(OCCO)c1 (stereo not given),"inconclusive [inhibitor, single point]",
Cn1c2ccccc2c2nnc(N/N=C/c3ccc(O)cc3)nc21,inactive,
CC1CCCN(c2nc3c(S(=O)(=O)c4ccc(C(C)C)cc4)nnn3c3ccsc23)C1 (stereo not given),"inconclusive [inhibitor, single point]",
CC1C(=O)CCC1(C(=O)O)c1ccccc1 (stereo not given),"inconclusive [inhibitor, single point]",
COc1ccc(C2=C(C)C(=O)N(Cc3ccc(C(=O)Nc4cccc(F)c4)cc3)S2(=O)=O)cc1,active: 23.1 µM,
COc1ccc(OC)c(NC(=O)CSc2nnc(CNc3ccc(C)cc3C)o2)c1,,inconclusive: -34.3% [inhibitor]
CCOc1cc(C(=S)N2CCCCC2)ccc1OS(=O)(=O)c1ccc(Cl)cc1,active: 23.1 µM,
CCCC[n+]1ccn(-c2nc3ccccc3nc2[N-]S(=O)(=O)c2cccs2)c1,"inconclusive [inhibitor, single point]",
Cc1ccccc1-n1c(SCC(N)=O)nc2sc(-c3ccccc3)cc2c1=O,active: 18.4 µM,
Cc1nc(Nc2ccc(S(N)(=O)=O)cc2)sc1-c1ccccc1,active: 18.4 µM,
Cc1nc2sc(C(c3ccc(Cl)cc3)N3CCN(c4ccccc4F)CC3)c(O)n2n1 (stereo not given),inactive,
O=C(NCc1ccccc1)C1CCCN(c2ncnc3c2nc2n3CCCCC2)C1 (stereo not given),active: 20.6 µM,
COc1cccc2c1OC1(N3CCOCC3)CCCCC1C2C[N+](=O)[O-] (stereo not given),"inconclusive [inhibitor, single point]",
CC(C)(CC(=O)O)CC(=O)N1CCN(c2cc(C(F)(F)F)nc3ccccc23)CC1,inactive,
CC1(C)Oc2cc3oc(-c4cc(O)cc(O)c4)cc3cc2CC1O (stereo not given),"inconclusive [inhibitor, single point]",
COc1cccc(/C=N/NC(=O)C(C)n2nnc3ccccc32)c1 (stereo not given),"inconclusive [inhibitor, single point]",
O=C1c2ccccc2C(=O)N1CCc1ccccc1,"inconclusive [inhibitor, single point]",
CC1CCCC(C)N1C(=O)COC(=O)c1cc(F)c(F)cc1Cl (stereo not given),inactive,
COc1ccc(NC(=O)c2sc(Cl)nc2-c2ccccc2)cc1,"inconclusive [inhibitor, single point]",
COc1ccccc1CNC(=O)COC(=O)C1CCN(S(=O)(=O)c2ccccc2)CC1,inactive,
CC(C)(C)N/N=C/c1c(O)n(-c2ccc(Cl)cn2)c(=O)c2ccccc12,"inconclusive [inhibitor, partial curve]",
CC(C)(C)OC(=O)CNC(=O)c1nc[nH]c1C(=O)NCC(=O)OC(C)(C)C,"inconclusive [inhibitor, single point]",
O=C(c1ccc(Cl)cc1)N1CCN(c2ccc([N+](=O)[O-])c(NCc3cccnc3)c2)CC1,"inconclusive [inhibitor, single point]",
Cc1cc(C)n(Cc2ccc(NC(=O)c3ccc(COc4ccccc4Br)cc3)cc2)n1,active: 29.1 µM,

SMILES,Potency,"activity change, negative = growth inhibition"
N=C1C=CC=C2C1=NC1(CCCCC1)N2O,inactive,
O=C1/C(=C\c2ccncc2)CCc2ccccc21,active: 14.6 µM,
CC(=O)N(CN1C(=O)CCC1=O)c1ccc(Cl)c(Cl)c1,inactive,
O=C(CNC(=O)c1cccc(F)c1)OCCOc1cccc(Cl)c1,inactive,
Fc1ccccc1OCCCCn1cncn1,inactive,
COc1ccc(C(C)=O)cc1Cn1c(C)c(C(=O)NCc2cccc(C)c2)sc1=O,"inconclusive [inhibitor, single point]",
CC1Cc2nc(SCC(=O)Nc3nccs3)n(Cc3ccccc3)c(=O)c2S1 (stereo not given),"inconclusive [inhibitor, single point]",
COc1cc2c(-c3ccccc3O)nc3c(c(C)nn3-c3ccccc3)c2cc1OC,"inconclusive [inhibitor, single point]",
CC(C)(O)C#Cc1ccc(N2C(c3ccsc3)=Cc3ccc(F)cc3C2c2c[nH]c3ccc(C#N)cc23)cc1 (stereo not given),"inconclusive [inhibitor, single point]",
COc1ccc(C(CNC(=O)C(C)(C)Oc2ccc(Cl)cc2)N2CCCCC2)cc1 (stereo not given),"inconclusive [inhibitor, single point]",
CCOC(=O)CNC(=O)CSc1ccc(-c2nc3ccccc3[nH]2)cn1,"inconclusive [inhibitor, single point]",
O=C(Nc1nnc(CSCc2ccc(F)cc2)s1)c1cccc([N+](=O)[O-])c1,"inconclusive [inhibitor, single point]",
COc1ccc(C(=O)N2CCN(CCNC(=O)C(=O)Nc3ccc(F)cc3)CC2)cc1OC,"inconclusive [inhibitor, single point]",
O=C(NC1CCCc2ccccc21)c1cccc(Br)c1 (stereo not given),"inconclusive [inhibitor, single point]",
C=CCn1c(C)cc(C(=O)Cn2nc(C(=O)O)c3ccccc3c2=O)c1C,"inconclusive [inhibitor, partial curve, poor fit]",
Cc1ccc(S(=O)(=O)N2CCC(C(=O)OCC(=O)N(C)c3ccccc3)CC2)cc1C,"inconclusive [inhibitor, single point]",
COc1ccc(-c2nc(N)nc(C(F)(F)F)c2-c2csc(C)n2)c(O)c1,inactive,
CSc1nnc(SCC#N)s1,inactive,
O=C(CN1CCCC1)N/N=C/c1c(O)ccc2ccccc12,"inconclusive [inhibitor, single point]",
COc1ccccc1NS(=O)(=O)c1ccc2c(c1)n(C)c(=O)n2C,"inconclusive [inhibitor, partial curve]",
Cc1oc(=O)c(NC(=O)c2cccc(Cl)c2)cc1C(=O)c1ccccc1,active: 20.6 µM,
C=CCc1ccc(OC(=O)NC2CCCCC2)c(OC)c1,inactive,

# — PubChem BioAssay AID686978 (National Center for Advancing Translational Sciences (NCATS), 2013)
